Some of the results follow. These are further read-outs of the screen, such as a control signal, another cell line or another target. No call is given for them. Compounds called inactive in the main read-out are mostly missing here.
Experiment: beta-lactam sensitization of Mtb H37Rv, H37Rv (AID 434955);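 also: growth measured after seven days incubation then overnight dye step; 0% = bacteria only wells and 100% = bacteria with antibiotic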
Settings: M. tuberculosis H37Rv growth with meropenem, percent inhibition; measured here: primary screen without meropenem; at 25 µM
Cc1ccc(CSc2nccc(-c3c(C)nc4ccccn34)n2)cc1 gave an inhibition of 37%. In the case of Nc1c(-c2ccccc2)cnn1-c1ccc(C(=O)O)cc1, the inhibition was 6.3%. O=C1CS/C(=N/N=C2C3CC4CC(C3)CC2C4)N1 gave an inhibition of 21.1%. Compound CSc1nnc(NC(=O)c2cc(=O)c3cc(C)cc(C)c3o2)s1 has an inhibition of 10.2%. With COc1ccccc1N1CCN(CC(=O)Nc2cc(F)ccc2C)CC1 the inhibition was 45.1%. With Cc1ccccc1S(=O)(=O)Cc1ccc(C(=O)NCc2cccs2)o1 the inhibition was 2.67%. CCCCOc1ccccc1NC(=O)c1ccco1 showed an inhibition of 29.5%. In the case of Cc1cccc(OCC(=O)Nc2nccs2)c1C, the inhibition was 11.9%. Work on C=CCn1c(O)c(N=Nc2ccccc2O)c2ccccc21 yielded an inhibition of 100%. Work on COC(=O)c1ccccc1NC(=O)N1CCN(C/C=C/c2ccccc2)CC1 yielded an inhibition of 8.81%. With CCc1cccc(CC)c1NC(=O)CSc1nc2ccc(N3C(=O)C4C(C3=O)[C@H]3C=C[C@@H]4C3)cc2s1 (some centres undefined) the inhibition was -9.69%. Work on Cc1ccc(C(=O)N2CCCC(Nc3cccc(F)c3)C2)cc1N1CCNC1=O (centres undefined) yielded an inhibition of -4.83%. In the case of CCN(Cc1ccncc1)C(=O)c1cc(COc2ccc(OC)cc2Cl)on1, the inhibition was 16.6%. CCCNC(=O)CN(c1ccc(F)c(Cl)c1)S(C)(=O)=O gave an inhibition of -4.41%. CCOC(=O)C1CCN(C(=O)c2sc3nc(C)nc(N4CCC(C)CC4)c3c2C)CC1 gave an inhibition of 32.5%. Compound C=CCNC(=O)c1ccccc1Cl has an inhibition of 1.17%. Compound CC(C)(C)c1cc(Cc2ccccc2)[nH]n1 has an inhibition of 28.4%. Compound O=C(NCCc1ccccc1C(F)(F)F)C1CCC(=O)N(C2CC2)C1 (centres undefined) has an inhibition of -7.73%. CC(NC(=O)COC(=O)CCc1ccccc1)c1ccccc1 (centres undefined) gave an inhibition of 1.59%. With O=C(CSc1nnc(NC(=O)c2ccccc2F)s1)NCc1ccc(F)cc1 the inhibition was 0.43%. For C=CCN(c1ccccc1)S(=O)(=O)c1cc2c(cc1C)NC(=O)CO2, the inhibition was -4.33%. In the case of CCOc1ccc2nc(NC(=O)C3CCN(S(=O)(=O)c4cnc[nH]4)CC3)sc2c1, the inhibition was -7.99%. O=C(Cn1nc(Cc2cccnc2)c2ccccc2c1=O)NCC1COc2ccccc2O1 (centres undefined) gave an inhibition of -1.52%. In the case of COc1ccc(NC2CC(=O)N(C)C2=O)cc1 (centres undefined), the inhibition was 31%. Compound O=C(CSc1nnc(-c2cccs2)o1)Nc1cccc(S(=O)(=O)N2CCCCC2)c1 has an inhibition of 0.86%. With Cc1cc(NS(=O)(=O)c2ccc(NC(=O)CSc3nnc(-c4ccco4)n3Cc3ccco3)cc2)nc(C)n1 the inhibition was -2.25%. Work on C=CCSc1nnc(-c2cc3c(-c4ccccc4)nn(C)c3s2)n1C yielded an inhibition of 22.7%. With COc1ccccc1OCCNCC(O)COc1cccc2[nH]c3ccccc3c12 (centres undefined) the inhibition was -5.06%. Work on Cc1ccc(C(=O)N2CCCC(CCC(=O)N3CCN(c4ccccn4)CC3)C2)cn1 (centres undefined) yielded an inhibition of -1.02%. In the case of CCOC(=O)c1[nH]c(C)c(C(=O)N(CC)CC)c1C, the inhibition was -11%. O=C(c1cc(COc2ccc(F)cc2F)on1)N1C[C@H]2CC[C@H]1C2 gave an inhibition of -3.17%. Cc1cc(C)c(C)c(S(=O)(=O)N2C(=S)NC(=O)C2CC(C)C)c1C (centres undefined) gave an inhibition of 9.18%. CCc1cc(C(=O)O)c(NC(=O)/C=C/c2ccc(OC)cc2)s1 showed an inhibition of 2.75%. With CCOC(=O)N1CCN(C(=O)C2CCN(c3nnc(-n4cccc4)s3)CC2)CC1 the inhibition was -4.54%. O=C(CCc1ccccc1)NC(=S)Nc1cccc(C(=O)O)c1 gave an inhibition of 5.39%. Compound COC(CN(C(=O)CCl)C(C(=O)NC1CCCCC1)c1ccccc1C)OC (centres undefined) has an inhibition of -5.02%. With CCc1ccc2oc(-c3cc(N)cc(C)c3O)nc2c1 the inhibition was 42.6%. For CCOc1ccc(/C=N/n2c(COc3ccccc3)n[nH]c2=S)cc1OC, the inhibition was 3.96%. For Cc1cc(C)c(S(=O)(=O)Nc2ccc(O)c(Sc3ncn[nH]3)c2)cc1C, the inhibition was -3.72%. Cc1cc2[nH]c(=O)c(=O)[nH]c2cc1S(=O)(=O)N1CCN(c2cccc(C)c2C)CC1 gave an inhibition of -7.28%. With Cc1ccc(-n2nc3c(c2NC(=O)c2ccc(F)c(F)c2)CS(=O)(=O)C3)cc1 the inhibition was -7.41%. Compound CC(C)C(=O)Nc1nnc(SCC(=O)N2c3ccccc3CC2C)s1 (centres undefined) has an inhibition of -3.03%. With CCOC(=O)c1c(Nc2ccc(Cl)cc2)sc(/C=C2\C=Nc3ccccc32)c1O the inhibition was 8.38%. In the case of C=CCOC(=O)C1=C(C)OC(N)=C(C#N)C1c1ccoc1 (centres undefined), the inhibition was 1.42%. Cc1cc(C)c(C)c(S(=O)(=O)N2CCN(CC(=O)Nc3sccc3C#N)CC2)c1C gave an inhibition of -0.28%. With S=c1[nH]cnc2scc(-c3ccc(Br)cc3)c12 the inhibition was 42%. Compound O=C(Nc1ccnn1C1CCN(Cc2cccc(OCCO)c2)CC1)C1CC1 has an inhibition of -3.87%. NS(=O)(=O)c1cccc(NC(=O)CCSc2ccccc2Cl)c1 gave an inhibition of -0.94%. COc1ccc(OCc2cc(C(=O)NCC3(C)COC3)no2)c(Cl)c1 gave an inhibition of -4.38%. Compound Cc1ccc(/C=N\NC(=O)c2csnn2)cc1 has an inhibition of 19.4%. In the case of COc1ccc(CCN2CC(C(=O)N3CCN(C(C)=O)CC3)CCC2=O)cc1 (centres undefined), the inhibition was 2.04%. With Cc1ccc(SCCNC(=O)c2ccc(C)c([N+](=O)[O-])c2)cc1 the inhibition was -0.7%. For O=C(N/N=C/c1ccc(OC(=O)c2ccc3c(c2)OCO3)cc1)c1cncc(Br)c1, the inhibition was 34.1%. Work on C=CCCC(=O)N1CCC(Oc2cccc(C(=O)NCc3ccccn3)c2)CC1 yielded an inhibition of 3.45%. For O=C(Nc1nc(-c2ccc3c(c2)OCCO3)cs1)c1ccco1, the inhibition was 7.76%. COc1ccc(CN(C(=O)c2oc3ccc(F)cc3c2C)C2CCS(=O)(=O)C2)cc1 (centres undefined) showed an inhibition of 15.7%. Work on COc1ccc(C)cc1NC(=O)CCCN1C(=O)C2CC=CCC2C1=O (centres undefined) yielded an inhibition of -7.12%. With O=C(NC1CC2CCCC(C1)N2Cc1cccs1)N1CCOCC1 (centres undefined) the inhibition was -9.03%. Compound Cc1cccc(NC(=S)NC(=O)C2CC2)c1 has an inhibition of 11.1%. COc1cccc(C(C2=C(O)CC(C)(C)CC2=O)C2C(=O)CC(C)(C)CC2=O)c1 (centres undefined) gave an inhibition of 2.89%. S=C(NN=C1C2CC3CC(C2)CC1C3)Nc1ccccc1 showed an inhibition of -6.84%. For C/C(=N\NC(=O)c1ccccc1)c1c(O)n(C2CCCCC2)c(=O)[nH]c1=O, the inhibition was 5.01%. CCCNC(=O)CCc1c(C)nc2c(c(C)nn2-c2ccc(C)cc2)c1C gave an inhibition of 0.29%. COc1ccc(Nc2cc3n(c(=O)n2)CCc2cc(OC)c(OC)cc2-3)c(C)c1 showed an inhibition of -1.66%. Compound Cc1nnc(NC(=O)CSc2nnc(CNC(=O)c3ccccc3)o2)s1 has an inhibition of -2.63%. O=C(CSc1nnc(-c2ccco2)n1-c1ccccc1)NCC1CCCO1 (centres undefined) showed an inhibition of 3.15%. For COc1ccccc1CN1C(=O)CNC1=S, the inhibition was 5.34%. With COc1ccc(C(=O)N2CCCC(Nc3ccc(F)cc3)C2)c(OC)c1 (centres undefined) the inhibition was -2.53%. For CCOC(=O)c1sc2nc(-c3ccco3)c3c(c2c1N)CC(C)(C)OC3, the inhibition was 43.2%.

Source: PubChem BioAssay AID434955 (Southern Research Specialized Biocontainment Screening …, 2010)
